Measured values from PMC4336329 (PLoS ONE, 2015).
About 14,000 (4.5%) of roughly 310,000 compounds showed an effect of 50% or more. The effect is printed as a negative number. The list shows a part of the results.

The compounds below were run against human ether-à-go-go-related gene (hERG) potassium channel (human, UniProt Q12809) (assay: primary screen, population patch clamp on CHO cells stably expressing hERG).
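Note: peak tail current of the secondary pulse compared with the same well before compound.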

Chain of human ether-à-go-go-related gene (hERG) potassium channel (Q12809 whole entry, looked up): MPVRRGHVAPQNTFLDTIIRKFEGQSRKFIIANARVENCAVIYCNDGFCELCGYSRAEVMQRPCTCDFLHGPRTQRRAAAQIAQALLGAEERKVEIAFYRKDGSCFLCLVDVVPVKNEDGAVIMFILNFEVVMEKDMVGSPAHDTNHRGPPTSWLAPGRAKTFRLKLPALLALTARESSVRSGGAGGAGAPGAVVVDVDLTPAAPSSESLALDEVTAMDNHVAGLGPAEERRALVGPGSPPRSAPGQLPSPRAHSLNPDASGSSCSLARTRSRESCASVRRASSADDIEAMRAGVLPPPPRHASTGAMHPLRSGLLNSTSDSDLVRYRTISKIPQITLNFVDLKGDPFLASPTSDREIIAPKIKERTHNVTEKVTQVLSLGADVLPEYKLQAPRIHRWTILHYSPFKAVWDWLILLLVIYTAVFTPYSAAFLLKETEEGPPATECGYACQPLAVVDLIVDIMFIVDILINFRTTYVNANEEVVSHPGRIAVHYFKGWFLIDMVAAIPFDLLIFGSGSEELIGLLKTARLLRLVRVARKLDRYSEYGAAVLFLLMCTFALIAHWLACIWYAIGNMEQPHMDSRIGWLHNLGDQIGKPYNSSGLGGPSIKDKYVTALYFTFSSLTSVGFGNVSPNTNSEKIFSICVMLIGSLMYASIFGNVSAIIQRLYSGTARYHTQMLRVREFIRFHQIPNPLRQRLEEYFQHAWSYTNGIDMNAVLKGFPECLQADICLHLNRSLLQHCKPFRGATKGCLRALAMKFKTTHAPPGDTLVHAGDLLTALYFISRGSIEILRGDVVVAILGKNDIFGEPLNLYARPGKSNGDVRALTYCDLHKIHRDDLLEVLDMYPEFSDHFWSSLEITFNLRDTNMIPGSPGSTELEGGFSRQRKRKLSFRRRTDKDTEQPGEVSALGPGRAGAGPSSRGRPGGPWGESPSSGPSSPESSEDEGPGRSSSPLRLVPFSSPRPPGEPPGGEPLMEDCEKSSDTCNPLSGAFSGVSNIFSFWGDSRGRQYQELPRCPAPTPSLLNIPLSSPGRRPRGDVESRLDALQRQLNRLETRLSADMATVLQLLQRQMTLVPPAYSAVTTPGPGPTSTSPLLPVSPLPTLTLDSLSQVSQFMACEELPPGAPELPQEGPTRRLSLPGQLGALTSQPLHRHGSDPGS

Row | Structure (SMILES) | hERG current change (%, negative = inhibition) at 10uM
1 | O=c1[nH]c2ccc(Cl)cc2c(-c2ccccc2)c1N1CCN(c2ccccn2)CC1 | 6.61%
2 | Cc1cc(=O)n2[nH]c(C)c(-c3ccccc3)c2n1 | 20.4%
3 | OCCCn1c(CCNc2nc(-c3ccc(Cl)cc3)cs2)nc2cc(C(F)(F)F)ccc21 | -0.705%
4 | CCC(=O)Nc1cccc(-c2cn3ccsc3n2)c1 | 7.63%
5 | CCCCOc1ccc(NC(=O)C(=O)NCCC2=CCCCC2)cc1 | 2.25%
6 | COc1ccc(/C=N/NC(=O)C2C3CCCCC32)cc1OC (stereo not shown) | 4.78%
7 | COc1ccc(NC(=O)CSc2n[nH]c(C)c2[N+](=O)[O-])cc1 | 8.06%
8 | COc1cccc(C(C(=O)NC(C)(C)C)N(CCc2ccccc2)C(=O)CCC(=O)Nc2cc(C)on2)c1OC (stereo not shown) | -1.05%
9 | O=C(CCN1C(=O)c2ccc([N+](=O)[O-])cc2C1=O)Nc1cccc(O)c1 | -0.271%
10 | Cc1ccc(C2SCC(C(=O)O)N2C(=O)c2ccc(F)cc2)cc1 (stereo not shown) | 5.58%
11 | Cc1c(Cl)cccc1NC(=O)C1CCN(S(C)(=O)=O)CC1 | 7.22%
12 | O=C(c1ccco1)N(Cc1ccco1)c1ccc(O)cc1 | 10.6%
13 | COC(=O)C1CN(C(=O)COc2ccccc2C)c2ccccc2O1 (stereo not shown) | 1.6%
14 | COc1ccccc1CNC(=O)CN1C(=O)c2ccc([N+](=O)[O-])cc2C1=O | 5.65%
15 | COc1cc(NC(=O)c2ccccc2-c2ccccc2)cc(OC)c1 | -32.4%
16 | CCOC(=O)N1CCN(S(=O)(=O)c2ccc(OC)c(OC)c2)CC1 | 3.2%
17 | C[C@@]12C(=O)Nc3ccccc3C(=O)N1[C@H]1c3cc(Br)ccc3OC[C@@H]1[C@@H]2c1ccccc1 | -3.69%
18 | NC(=O)CSc1nnc(SCc2ccc(F)cc2)s1 | 4.24%
19 | CCC(C)n1c(=O)c(C(=O)Nc2ccccc2S(N)(=O)=O)c(O)c2ccccc21 (stereo not shown) | 2.09%
20 | O=C(O)c1ccc(NS(=O)(=O)c2cc(Cl)sc2Cl)cc1 | 21.3%
21 | CCc1nn(CC(=O)NCCN2CCOCC2)c(=O)c2cc3c(OC)cccc3n12 | 3.51%
22 | CCCNC1=C(C)C(=O)CC1 | 15.9%

Row | Structure (SMILES) | hERG current change (%, negative = inhibition) at 10uM
23 | Cn1ncc(Cl)c(Oc2ccc(C(C)(C)C)cc2)c1=O | -26%
24 | COc1cccc(CN2CCN(Cc3ccc(C)o3)CC2CCO)c1 (stereo not shown) | -21.2%
25 | Cc1cc(C)n2nc(C(=O)Nc3c(C)nn(Cc4ccc(F)cc4)c3C)cc2n1 | 9.47%
26 | CC(C)COc1cccc(C(=O)Nc2ccc(N3CCOCC3)cc2N2CCOCC2)c1 | -14.4%
27 | Cc1cc(C)nc(NC(N)=S)n1 | 14.9%
28 | Cc1cc(NC(=O)c2c(F)cccc2F)n(-c2nc3ccccc3[nH]2)n1 | 12.4%
29 | Clc1cccc(Cl)c1CSc1cc2c(nn1)-c1ccccc1CC2 | 7.7%
30 | CN(C)CCN(CC1CCCN(Cc2ccccc2F)C1)C(=O)Cc1ccc(F)c(F)c1 (stereo not shown) | -22.2%
31 | CC1=C(C(=O)N2CCCC(C(=O)c3cccc4ccccc34)C2)OCCO1 (stereo not shown) | 20.8%
32 | CCc1ccccc1NC(=O)Nc1cccs1 | 4.68%
33 | Cc1nn(C)c(C)c1-c1c(C#N)c(N)nc2c1CCCCCC2 | -11.3%
34 | CC(=O)NCCC(=O)Nc1cc(S(=O)(=O)N2CCCCC2)ccc1Oc1ccccc1 | -64.9%
35 | Cc1ccc(SC[C@H](C)CN2CC[C@H](C(C)(C)C)CCC2=O)cc1 | -13.9%
36 | O=S(=O)(N/N=C/c1ccc(N2CCOCC2)cc1)c1ccc(Br)cc1 | 15.1%
37 | COc1ccc(N(CC(=O)N2CCc3ccccc3C2)S(C)(=O)=O)cc1OC | -23.1%
38 | O=C1/C(=C/c2ccco2)SC(=S)N1CCC(=O)N1CCCCC1CCO (stereo not shown) | -6.86%
39 | CCCCOC(=O)C1=C(C)NC(=O)NC1c1cccc([N+](=O)[O-])c1 (stereo not shown) | -7.25%
40 | COc1ccc(CC(=O)Nc2ccc(C(=O)NC(C)(C)C)cc2)cc1OC | 12.3%
41 | Cc1c(-c2ccc(Cl)cc2)[n+](=O)c(-c2ccccc2)cn1[O-] | 7.91%
42 | Cc1cc(-n2c(=O)c(C#N)cc3c(=O)n4ccccc4nc32)no1 | -17%
43 | COc1ccc(NC(=O)Cc2ccsc2)c(OC)c1 | 2.18%
44 | COCCCNC(=O)CCN1N=C(c2ccccc2)CCC1=O | 18%

Row | Structure (SMILES) | hERG current change (%, negative = inhibition) at 10uM
45 | Nc1c(N(CCC2=CCCCC2)C(=O)c2ccco2)c(=O)[nH]c(=O)n1Cc1ccccc1 | 17.1%
46 | COc1cccc(-c2cc(C(F)(F)F)nc(-n3cncn3)n2)c1 | -23.4%
47 | O=C(NCc1ccco1)c1cc([N+](=O)[O-])cc([N+](=O)[O-])c1 | -10.8%
48 | O=C(NCCCCc1ccccc1)C1CC(c2cc(C(F)(F)F)cc(C(F)(F)F)c2)=NO1 (stereo not shown) | 18.9%
49 | CC(NC(=O)c1ccccc1)c1nnc(SCc2nc3ccccc3c(=O)[nH]2)n1C (stereo not shown) | 14%
50 | NC(=O)c1ccc(C2SCC(=O)N2Cc2ccccc2)cc1 (stereo not shown) | 4.87%
51 | O=[N+]([O-])c1ccc2[nH]c(O)c(N=NC3CCS(=O)(=O)C3)c2c1 (stereo not shown) | 17.9%
52 | COc1ccccc1OCC(=O)Nc1oc(-c2ccccc2)c(-c2ccccc2)c1C#N | -2.06%
53 | O=C(NCc1ccccc1F)C1CCCN(c2cnccn2)C1 (stereo not shown) | 13.4%
54 | CCc1cccc(C)c1NC(=O)COC(=O)C1CCN(S(=O)(=O)c2ccccc2)CC1 | 7.65%
55 | CCCN(C(=O)C1CSC2(C)CCC(=O)N12)c1c(N)n(Cc2ccccc2)c(=O)[nH]c1=O (stereo not shown) | 12.2%
56 | Clc1ccc2c(c1)C(c1ccccc1Cl)=NCc1nnc(Br)n1-2.c1ccccc1 | -6.61%
57 | COc1ccc(NC(=O)CN2CCN(Cc3ccccc3)CC2)cc1 | -52.8%
58 | Cc1nc(N2CCCC2)c2ccsc2n1 | -0.855%
59 | C=CCNC(=S)N(CC)c1cccc2ccccc12 | -28.9%
60 | CCc1ccccc1NC(=O)/C(C#N)=C\c1ccc(Sc2ccccc2)o1 | -8.2%
61 | CCN(CC)c1ccc(N=Cc2ccc([N+](=O)[O-])o2)cc1 | -10.3%
62 | O=C(CSc1nnc(-c2cccs2)n1Cc1ccco1)Nc1ccc2c(c1)OCO2 | -14.6%
63 | O=C(O)CCn1c(SCCOc2ccccc2F)nc2ccccc21 | 14.6%
64 | CCCC(=O)Nc1ccc(NC(=O)c2cccc(OC)c2)cn1 | -4.71%
65 | O=C(N/N=C/c1ccc(-c2ccc(S(=O)(=O)Nc3ncccn3)cc2)o1)c1cc2ccccc2cc1O | 15.1%
66 | CCC(NC(=O)c1ccccc1NC(=O)c1ccc(OC)cc1)C(=O)N1CCCC1 (stereo not shown) | -6.54%

Row | Structure (SMILES) | hERG current change (%, negative = inhibition) at 10uM
67 | COC(=O)Cn1cnc2c1c(=O)n(C)c(=O)n2C | 8.74%
68 | COc1ccc(/C=N/NC(=O)c2cccnc2)c2ccccc12 | 25.1%
69 | CCOc1ccc(S(=O)(=O)Nc2ccc3c(c2)c2c(n3S(=O)(=O)c3ccc(OCC)cc3)CCCC2=O)cc1 | 12.4%
70 | Cc1ccccc1C(=O)N1CCC(C(=O)Nc2ccc(S(=O)(=O)N3CCOCC3)cc2)CC1 | 8.3%
71 | CN(C)c1ccc(S(=O)(=O)N2CCCCC2)cc1NC(=O)C1CSC2(C)CCC(=O)N12 (stereo not shown) | -22.3%
72 | COc1ccc(-c2[nH]c(-c3cc(OC)c4c(c3)OCO4)nc2-c2ccccc2)cc1 | -20.3%
73 | CC(Nc1ccccc1)c1cc(Cl)ccc1O (stereo not shown) | -10.6%
74 | Oc1ccccc1C1CC(c2cccs2)=NC(c2ccc(Cl)cc2)N1 (stereo not shown) | 20.6%
75 | COc1ccc([N+](=O)[O-])cc1NC(=O)c1cn(-c2ccc(C)c(C)c2)c(=O)c2ccccc12 | 7.97%
76 | Cc1cccc(NC(=O)c2ccc(OC3CSC3)cc2)c1 | 6.4%
77 | CCCCC(=O)NC(N1CCCCC1)C(Cl)(Cl)Cl (stereo not shown) | -9.58%
78 | Cc1cccc(NC(=O)CCNS(=O)(=O)c2ccc3[nH]c(=O)oc3c2)c1 | 1.1%
79 | Cc1ccc(N(CC(=O)Nc2c(C)cccc2C)S(C)(=O)=O)cc1 | 1.65%
80 | CCOCCCNC(=O)c1cc2c(-c3ccc(Cl)cc3)nn(C)c2s1 | 9.31%
81 | CC12CCC(C(=O)NC(c3ccccc3)c3ccccc3)(OC1=O)C2(C)C (stereo not shown) | -37.2%
82 | CCCC(=O)c1cn(CC(=O)OC)c2ccccc12 | 14.5%
83 | O=C(CCc1ccccc1)NCCC1=CCCCC1 | -14.2%
84 | COc1cccc(C2CC(c3cccs3)=NN2S(C)(=O)=O)c1 (stereo not shown) | 3.9%
85 | Cc1cccc(-c2nnc(SCC#N)n2C)c1 | 13.2%
86 | O=C(NC1CCCC1)C(NS(=O)(=O)c1cccc2nsnc12)c1ccccc1 (stereo not shown) | -10.5%
87 | CCCCOc1ccc(-n2nc(C)cc2C)nn1 | -16.3%
88 | O=C(CC(C(=O)O)c1ccccc1)Nc1cccc2ccccc12 (stereo not shown) | 19.6%
